Whole data set: some 33,000 sequences, median “E-score (-0.5 to 0.5)” near -0.016, cut for the highest 2% near 0.32. This is one part of the list.
These sequences were tested against T1, Stp1 (UniProt B3LFK1) (assay: PBM E-score (8-mer binding enrichment) (E-score (-0.5 to 0.5)); higher = stronger / more preferred TF binding; most listed sequences are background and not binding sites). Conditions: protein concentration: 200 nM; construct: GST-full length.
T1 sequence: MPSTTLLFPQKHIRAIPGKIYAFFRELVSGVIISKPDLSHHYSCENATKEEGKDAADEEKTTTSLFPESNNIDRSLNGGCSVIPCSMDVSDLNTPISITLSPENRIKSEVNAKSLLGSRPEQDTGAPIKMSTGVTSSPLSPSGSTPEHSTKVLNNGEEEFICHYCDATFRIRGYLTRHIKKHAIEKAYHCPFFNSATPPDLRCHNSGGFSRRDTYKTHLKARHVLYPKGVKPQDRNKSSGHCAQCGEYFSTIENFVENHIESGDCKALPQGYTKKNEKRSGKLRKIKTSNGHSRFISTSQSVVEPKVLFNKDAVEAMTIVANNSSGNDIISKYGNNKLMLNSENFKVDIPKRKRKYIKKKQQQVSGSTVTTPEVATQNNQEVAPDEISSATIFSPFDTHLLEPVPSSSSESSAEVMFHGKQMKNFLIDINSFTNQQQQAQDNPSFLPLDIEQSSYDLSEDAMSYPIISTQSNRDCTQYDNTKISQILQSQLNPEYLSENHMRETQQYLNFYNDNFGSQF
In short: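 E-scores (a modified Wilcoxon-Mann-Whitney statistic) were assigned by the Universal PBM Analysis Suite to every ungapped eight-base word pooled with its reverse complement. The input came from universal all-10-mer Agilent arrays made double-stranded by primer extension and probed with GST-tagged yeast transcription factors at about 100-200 nM. Fluorescent anti-GST detected bound protein, and masliner normalised the scans.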

Sequence | PBM E-score
GAGATTTA | 0.0469
GTCGTACA | -0.0298
CCACACGG | 0.385
ATGCGGAA | 0.164
GGATTGAC | 0.08
ACTTAATA | 0.0715
AGCCGTGC | 0.465
CAAAGCTA | 0.0274
ACGCCAAA | -0.00017
CCGCGAAA | 0.102
AAGATTAC | -0.0171
GCGATAGA | -0.0418
ACCTGAGG | -0.252
AAGTATCA | 0.144
ATCGTTGG | 0.0123
AGGTGGTC | -0.293
ATATGCAC | 0.0296
GTTACCCA | -0.248
GATCGGAC | -0.0767
GCCTGGAA | -0.133
ACATGTAG | -0.0259
CAAACCAA | 0.0979
ATATAGCA | -0.0841
GCTACACC | -0.0559
ACACGCGG | 0.221

Sequence | PBM E-score
CGATAACA | 0.00285
AAACTGCC | 0.185
AGTACAAA | 0.0306
CGGCGATA | 0.395
CGTTCAGA | -0.0226
CAACACTG | -0.00558
CGCTACCC | -0.301
ACTGATAT | 0.205
AGCTAACC | -0.159
AAGCATGG | -0.206
ACACAAAT | 0.248
AACACGAG | -0.0176
CCGCAGAG | -0.124
ATGATGCA | 0.0889
ATTGCATA | 0.189
TCCGAGAA | 0.18
GAATGACA | -0.15
AATAGCGT | 0.175
AGGCGGTA | -0.0932
CGAGCTCA | -0.0314
CAGGTAAG | -0.148
GTAAGCGA | 0.0187
CCATAAAC | 0.102
CATACACG | 0.13
CTGCAGGA | -0.0388

Sequence | PBM E-score
AGGTCGAA | -0.00966
AGACGCGC | 0.0493
CCAGGCGG | -0.0554
CGACCCGA | -0.312
AAGAATGT | 0.0361
GGGTGGCA | -0.121
GGTCCCAC | -0.302
CCCTTTCA | -0.15
GTGGCCTA | -0.279
ATGGGGTG | 0.0671
GGTTACGA | -0.0716
CTAATCAA | 0.0583
CGTCTAAC | 0.119
AGGACGCC | 0.117
ATTAAGGC | 0.196
CACTTTAC | -0.00726
CAGCGAAA | -0.0495
CCGTATCA | 0.327
TTGATAAA | 0.294
ATAACGGG | -0.184
GACAAGTC | -0.147
ATGAATCA | 0.077
CACGGGGA | 0.0435
ATTACAAG | 0.0576
GCTAATAC | 0.0596

Sequence | PBM E-score
CTCTTCCA | -0.0123
ACATTATA | 0.0327
CACATCTG | -0.182
CCTTCGTA | 0.0218
CTTTCGGC | -0.12
TAAGCTAA | 0.147
AGTACGGG | -0.156
AATCGCAA | 0.165
CTGTTTAA | 0.141
ATACCGGC | 0.0769
GTACCGAC | -0.0501
AGAACTCT | -0.157
CGATAGTC | -0.0162
CGTGGCAA | 0.153
TCATTTAA | -0.00121
CCACACCA | 0.077
AGGCACCG | 0.272
GAGAGGCA | 0.208
TCTGGTAA | 0.0972
ATGGATAC | -0.0697
AAACAAAG | 0.129
GTCGCCAC | 0.0471
AAGTAAAC | -0.152
ATGGTTAC | 0.0165
CGCCACCA | -0.0579

Sequence | PBM E-score
GCGTAACC | -0.0384
CATATAGC | 0.0314
CCGTTGAA | 0.0716
CAGAATCC | -0.075
TATAACGA | 0.0337
ATCGGCTA | -0.108
CCCACCTA | -0.103
ACGAGTGC | 0.09
ACTAAACC | -0.0625
GGCAATTA | 0.158
GAGTGACC | -0.251
GGATTGGA | 0.0144
CGACTTAC | -0.132
AAGGGCAG | -0.0369
ACAGTAAA | 0.105
AGAATCAG | 0.136
ATGTATCA | 0.0802
AAAATGTT | 0.0842
GTAAATCA | 0.0719
GCTGGACC | -0.195
GAGTAATC | -0.0809
CGAACCAC | 0.247
AACCGATT | 0.0352
AGTGCTCC | -0.164
GGGACGGA | -0.13

Sequence | PBM E-score
AAGTACGA | 0.0928
TCCCACCA | -0.176
CGGAACAG | 0.0271
GAAGCCGC | 0.393
GACTGCTC | -0.287
CAGGCATA | 0.0777
GATAGCAC | 0.0249
AGAGACCC | -0.194
ACTCGTAT | -0.00239
GACCGTGC | 0.0191
CCGTCTCC | 0.147
CAGGAGCG | 0.088
AAGGGTGA | -0.14
GTGAGCGA | -0.103
AGGCTGAA | -0.118
CACACTAA | 0.14
ACTGCATA | 0.00255
CCGCCCAG | -0.105
GACTGCTA | -0.226
ACCACAAC | 0.0979
ATTTAGCG | 0.0158
CCCAGACC | -0.255
CGAGTCCA | -0.0882
GAGCGAAA | 0.13
CTGGGCTC | -0.264

Sequence | PBM E-score
ACTTAACT | 0.0536
CAATGGAC | 0.106
CTCGGGCC | -0.0148
CATCTAAA | 0.0999
AAATGCCT | 0.285
GACATGTA | 0.089
ACTGCAAC | -0.196
GCCTAGCA | -0.0533
GCCGAAGA | 0.134
GGGGCAAA | 0.0199
CCGGTCAG | -0.247
ATCCGGTC | -0.235
GTCCATAA | -0.104
AATATCCT | 0.0422
GCGCATAA | 0.00857
ATCTCCCA | -0.118
ATCTTACC | -0.0908
GCATAGGA | 0.0236
ATTAGGTA | 0.0951
GTCCGCTA | -0.0918
GAAGTGAA | 0.07
AGCGCCCA | -0.225

From the supplement of paper PMC3334620
